Test results reported in the supplement of paper PMC8728848.
Some of the results follow.

Columns and labels:
Assay in all cases: glycan array binding signal (z-score within array); higher = stronger binding
Conditions in all cases: glycan notation: IUPAC condensed, linker removed
[1] = target: Gal(a1-4)Gal(b1-4)GlcNAc(b1-2)Man(a1-3)[Gal(a1-4)Gal(b1-4)GlcNAc(b1-2)Man(a1-6)]Man(b1-4)GlcNAc(b1-4)GlcNAc
Procedure, shortened: (§1)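 Columns mapping to the same glycan were averaged after glycan names were converted to IUPAC-condensed notation. The data come from 3228 arrays in the Consortium for Functional Glycomics database, limited to those with an available protein sequence. Binding is reported as a within-array Z-score averaged across arrays of one protein sequence and across linkers.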

[2] = target: Gal(a1-4)Gal(b1-4)GlcNAc(b1-3)Gal(b1-4)Glc
Procedure, shortened: as §1

Gal(a1-4)GlcNAc = target: Gal(a1-4)GlcNAc
Procedure, shortened: as §1

Gal(a1-6)Glc = target: Gal(a1-6)Glc
Procedure, shortened: as §1

Gal(b1-2)Gal = target: Gal(b1-2)Gal
Procedure, shortened: as §1

Gal(b1-3)Gal = target: Gal(b1-3)Gal
Procedure, shortened: as §1

Gal(b1-3)Gal(b1-4)GlcNAc = target: Gal(b1-3)Gal(b1-4)GlcNAc
Procedure, shortened: as §1

[3] = target: Gal(b1-3)Gal(b1-4)GlcNAc(b1-2)Man(a1-3)[Gal(b1-3)Gal(b1-4)GlcNAc(b1-2)Man(a1-6)]Man(b1-4)GlcNAc(b1-4)GlcNAc
Procedure, shortened: as §1

Gal(b1-3)GalNAc = target: Gal(b1-3)GalNAc
Procedure, shortened: as §1

[4] = target: Gal(b1-3)GalNAc(a1-3)[Fuc(a1-2)]Gal(b1-4)Glc
Procedure, shortened: as §1

[5] = target: Gal(b1-3)GalNAc(a1-3)[Fuc(a1-2)]Gal(b1-4)GlcNAc
Procedure, shortened: as §1

[6] = target: Gal(b1-3)GalNAc(b1-3)Gal(a1-4)Gal(b1-4)Glc
Procedure, shortened: as §1

[7] = target: Gal(b1-3)GalNAc(b1-4)Gal(b1-4)Glc
Procedure, shortened: as §1

[8] = target: Gal(b1-3)GalNAc(b1-4)[Neu5Ac(a2-3)]Gal(b1-4)Glc
Procedure, shortened: as §1

Gal(b1-3)GlcNAc = target: Gal(b1-3)GlcNAc
Procedure, shortened: as §1

[9] = target: Gal(b1-3)GlcNAc(a1-6)Gal(b1-4)GlcNAc
Procedure, shortened: as §1

[10] = target: Gal(b1-3)GlcNAc(b1-2)Man(a1-3)[Gal(b1-3)GlcNAc(b1-2)Man(a1-6)]Man(b1-4)GlcNAc(b1-4)GlcNAc
Procedure, shortened: as §1

[11] = target: Gal(b1-3)GlcNAc(b1-2)Man(a1-3)[Gal(b1-3)GlcNAc(b1-2)Man(a1-6)]Man(b1-4)GlcNAc(b1-4)[Fuc(a1-6)]GlcNAc
Procedure, shortened: as §1

[12] = target: Gal(b1-3)GlcNAc(b1-2)[Gal(b1-3)GlcNAc(b1-6)]Man(a1-6)[Gal(b1-3)GlcNAc(b1-2)Man(a1-3)]Man(b1-4)GlcNAc(b1-4)GlcNAc
Procedure, shortened: as §1

[13] = target: Gal(b1-3)GlcNAc(b1-3)Gal(b1-3)GlcNAc
Procedure, shortened: as §1

[14] = target: Gal(b1-3)GlcNAc(b1-3)Gal(b1-4)Glc
Procedure, shortened: as §1

[15] = target: Gal(b1-3)GlcNAc(b1-3)Gal(b1-4)GlcNAc
Procedure, shortened: as §1

[16] = target: Gal(b1-3)GlcNAc(b1-3)Gal(b1-4)GlcNAc(b1-6)[Gal(b1-3)GlcNAc(b1-3)]Gal(b1-4)Glc
Procedure, shortened: as §1

[17] = target: Gal(b1-3)GlcNAc(b1-3)Gal(b1-4)[Fuc(a1-3)]GlcNAc(b1-6)[Gal(b1-3)GlcNAc(b1-3)]Gal(b1-4)Glc
Procedure, shortened: as §1

[18] = target: Gal(b1-3)GlcNAc(b1-3)GalNAc
Procedure, shortened: as §1

[19] = target: Gal(b1-3)GlcNAc(b1-6)Gal(b1-4)GlcNAc
Procedure, shortened: as §1

[20] = target: Gal(b1-3)[Fuc(a1-4)]GlcNAc
Procedure, shortened: as §1

[21] = target: Gal(b1-3)[Fuc(a1-4)]GlcNAc(b1-2)Man(a1-3)[Gal(b1-3)[Fuc(a1-4)]GlcNAc(b1-2)Man(a1-6)]Man(b1-4)GlcNAc(b1-4)GlcNAc
Procedure, shortened: as §1

[22] = target: Gal(b1-3)[Fuc(a1-4)]GlcNAc(b1-2)Man(a1-3)[Gal(b1-3)[Fuc(a1-4)]GlcNAc(b1-2)Man(a1-6)]Man(b1-4)GlcNAc(b1-4)[Fuc(a1-6)]GlcNAc
Procedure, shortened: as §1

[23] = target: Gal(b1-3)[Fuc(a1-4)]GlcNAc(b1-3)Gal(b1-3)[Fuc(a1-4)]GlcNAc
Procedure, shortened: as §1

[24] = target: Gal(b1-3)[Fuc(a1-4)]GlcNAc(b1-3)Gal(b1-4)GlcNAc
Procedure, shortened: as §1

[25] = target: Gal(b1-3)[Fuc(a1-4)]GlcNAc(b1-3)Gal(b1-4)[Fuc(a1-3)]GlcNAc
Procedure, shortened: as §1

[26] = target: Gal(b1-3)[GlcNAc(b1-6)]GalNAc
Procedure, shortened: as §1

[27] = target: Gal(b1-3)[Neu5Ac(a2-6)]GalNAc
Procedure, shortened: as §1

[28] = target: Gal(b1-3)[Neu5Ac(a2-6)]GlcNAc(b1-6)Gal(b1-4)Glc
Procedure, shortened: as §1

[29] = target: Gal(b1-3)[Neu5Ac(b2-6)]GalNAc
Procedure, shortened: as §1

Gal(b1-4)Gal = target: Gal(b1-4)Gal
Procedure, shortened: as §1

[30] = target: Gal(b1-4)GalNAc(a1-3)[Fuc(a1-2)]Gal(b1-4)GlcNAc
Procedure, shortened: as §1

[31] = target: Gal(b1-4)GalNAc(b1-3)[Fuc(a1-2)]Gal(b1-4)GlcNAc
Procedure, shortened: as §1

Gal(b1-4)Glc = target: Gal(b1-4)Glc
Procedure, shortened: as §1

Gal(b1-4)Glc6S = target: Gal(b1-4)Glc6S
Procedure, shortened: as §1

Gal(b1-4)GlcNAc = target: Gal(b1-4)GlcNAc
Procedure, shortened: as §1

[32] = target: Gal(b1-4)GlcNAc(a1-6)Gal(b1-4)GlcNAc
Procedure, shortened: as §1

Gal(b1-4)GlcNAc(b1-2)Man = target: Gal(b1-4)GlcNAc(b1-2)Man
Procedure, shortened: as §1

[33] = target: Gal(b1-4)GlcNAc(b1-2)Man(a1-3)Man(b1-4)GlcNAc(b1-4)GlcNAc
Procedure, shortened: as §1

B1: GNAT (Pseudomonas aeruginosa), Q9HV14 (protein)
chain: MQLSHRPAETGDLETVAGFPQDRDELFYCYPKAIWPFSVAQLAAAIAERRGSTVAVHDGQVLGFANFYQWQHGDFCALGNMMVAPAARGLGVARYLIGVMENLAREQYKARLMKISCFNANAAGLLLYTQLGYQPRAIAERHDPDGRRVALIQMDKPLEP
[1]
  glycan array binding signal (z-score): 0.997
[2]
  glycan array binding signal (z-score): 2.37
Gal(a1-4)GlcNAc
  glycan array binding signal (z-score): 0.374
Gal(a1-6)Glc
  glycan array binding signal (z-score): -0.211
Gal(b1-2)Gal
  glycan array binding signal (z-score): -0.324
Gal(b1-3)Gal
  glycan array binding signal (z-score): -0.184
Gal(b1-3)Gal(b1-4)GlcNAc
  glycan array binding signal (z-score): -0.085
[3]
  glycan array binding signal (z-score): -0.334
Gal(b1-3)GalNAc
  glycan array binding signal (z-score): -0.167
[4]
  glycan array binding signal (z-score): -0.364
[5]
  glycan array binding signal (z-score): -0.166
[6]
  glycan array binding signal (z-score): -0.366
[7]
  glycan array binding signal (z-score): -0.016
[8]
  glycan array binding signal (z-score): 0.136
Gal(b1-3)GlcNAc
  glycan array binding signal (z-score): 0.027
[9]
  glycan array binding signal (z-score): -0.301
[10]
  glycan array binding signal (z-score): 1.73
[11]
  glycan array binding signal (z-score): 0.185
[12]
  glycan array binding signal (z-score): 1.59
[13]
  glycan array binding signal (z-score): 0.929
[14]
  glycan array binding signal (z-score): 0.418
[15]
  glycan array binding signal (z-score): 0.381
[16]
  glycan array binding signal (z-score): 1.59
[17]
  glycan array binding signal (z-score): 2.87
[18]
  glycan array binding signal (z-score): 0.367
[19]
  glycan array binding signal (z-score): 0.151
[20]
  glycan array binding signal (z-score): -0.371
[21]
  glycan array binding signal (z-score): 0.539
[22]
  glycan array binding signal (z-score): -0.429
[23]
  glycan array binding signal (z-score): -0.328
[24]
  glycan array binding signal (z-score): 0.297
[25]
  glycan array binding signal (z-score): -0.315
[26]
  glycan array binding signal (z-score): -0.19
[27]
  glycan array binding signal (z-score): 0.421
[28]
  glycan array binding signal (z-score): -0.242
[29]
  glycan array binding signal (z-score): -0.065
Gal(b1-4)Gal
  glycan array binding signal (z-score): -0.449
[30]
  glycan array binding signal (z-score): -0.14
[31]
  glycan array binding signal (z-score): 0.29
Gal(b1-4)Glc
  glycan array binding signal (z-score): -0.418
Gal(b1-4)Glc6S
  glycan array binding signal (z-score): -0.348
Gal(b1-4)GlcNAc
  glycan array binding signal (z-score): -0.177
[32]
  glycan array binding signal (z-score): 0.533
Gal(b1-4)GlcNAc(b1-2)Man
  glycan array binding signal (z-score): -0.305
[33]
  glycan array binding signal (z-score): 3.3
